# The list shows a part of the results.
# B1: BC2LB (Burholderia cenocepacia), B4EH85_BURCJ (protein)
# chain: MGSSHHHHHHSSGENLYFQGHMSQPFTHDDLYALLQLAGNDATAVQANGDQAVLDRMRQFMTAQLVEKLPQYDVFVDIATIPYSFDVGSWQNKVKTDAAGEVVACTVTWAGAPGVLPGAAAKFGVGAVVNYFSKATPH
# How the values were obtained:
# Experiment in all cases: glycan array binding signal (z-score within array); higher = stronger binding
# Conditions in all cases: glycan notation: IUPAC condensed, linker removed
# [1] = target: Neu5Ac(a2-3)Gal6S(b1-4)[Fuc(a1-3)]GlcNAc
# In short: (§1)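 Arrays were curated from the Consortium for Functional Glycomics database, 3228 in total, and kept only where the protein sequence was available. Binding is expressed as a within-array Z-score. This score was averaged across arrays of the same protein sequence at different concentrations or buffers and across linkers, and negative values can be read as non-binding.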
# Neu5Ac(a2-3)GalNAc = target: Neu5Ac(a2-3)GalNAc
# In short: as §1
# [2] = target: Neu5Ac(a2-3)GalNAc(b1-4)GlcNAc
# In short: as §1
# [3] = target: Neu5Ac(a2-3)[GalNAc(b1-4)]Gal(b1-4)Glc
# In short: as §1
# [4] = target: Neu5Ac(a2-3)[GalNAc(b1-4)]Gal(b1-4)GlcNAc
# In short: as §1
# [5] = target: Neu5Ac(a2-3)[GalNAc(b1-4)]Gal(b1-4)GlcNAc(b1-3)GalNAc
# In short: as §1
# [6] = target: Neu5Ac(a2-3)[Neu5Ac(a2-6)]GalNAc
# In short: as §1
# Neu5Ac(a2-6)Gal = target: Neu5Ac(a2-6)Gal
# In short: as §1
# [7] = target: Neu5Ac(a2-6)Gal(b1-3)GlcNAc(b1-3)[Gal(b1-4)GlcNAc(b1-6)]Gal(b1-4)Glc
# In short: as §1
# Neu5Ac(a2-6)Gal(b1-4)Glc = target: Neu5Ac(a2-6)Gal(b1-4)Glc
# In short: as §1
# [8] = target: Neu5Ac(a2-6)Gal(b1-4)GlcNAc
# In short: as §1
# [9] = target: Neu5Ac(a2-6)Gal(b1-4)GlcNAc(b1-2)Man
# In short: as §1
# [10] = target: Neu5Ac(a2-6)Gal(b1-4)GlcNAc(b1-2)Man(a1-3)Man(b1-4)GlcNAc(b1-4)GlcNAc
# In short: as §1
# [11] = target: Neu5Ac(a2-6)Gal(b1-4)GlcNAc(b1-2)Man(a1-3)[Gal(b1-4)GlcNAc(b1-2)Man(a1-6)]Man(b1-4)GlcNAc(b1-4)GlcNAc
# In short: as §1
# [12] = target: Neu5Ac(a2-6)Gal(b1-4)GlcNAc(b1-2)Man(a1-3)[GlcNAc(b1-2)Man(a1-6)]Man(b1-4)GlcNAc(b1-4)GlcNAc
# In short: as §1
# [13] = target: Neu5Ac(a2-6)Gal(b1-4)GlcNAc(b1-2)Man(a1-3)[GlcNAc(b1-4)][Neu5Ac(a2-6)Gal(b1-4)GlcNAc(b1-2)Man(a1-6)]Man(b1-4)GlcNAc(b1-4)GlcNAc
# In short: as §1
# [14] = target: Neu5Ac(a2-6)Gal(b1-4)GlcNAc(b1-2)Man(a1-3)[Man(a1-6)]Man(b1-4)GlcNAc(b1-4)GlcNAc
# In short: as §1
# [15] = target: Neu5Ac(a2-6)Gal(b1-4)GlcNAc(b1-2)Man(a1-3)[Neu5Ac(a2-3)Gal(b1-4)GlcNAc(b1-2)Man(a1-6)]Man(b1-4)GlcNAc(b1-4)GlcNAc
# In short: as §1
# [16] = target: Neu5Ac(a2-6)Gal(b1-4)GlcNAc(b1-2)Man(a1-3)[Neu5Ac(a2-6)Gal(b1-4)GlcNAc(b1-2)Man(a1-6)]Man(b1-4)GlcNAc(b1-4)GlcNAc
# In short: as §1
# [17] = target: Neu5Ac(a2-6)Gal(b1-4)GlcNAc(b1-2)Man(a1-3)[Neu5Ac(a2-6)Gal(b1-4)GlcNAc(b1-2)Man(a1-6)]Man(b1-4)GlcNAc(b1-4)[Fuc(a1-6)]GlcNAc
# In short: as §1
# [18] = target: Neu5Ac(a2-6)Gal(b1-4)GlcNAc(b1-2)Man(a1-6)Man(b1-4)GlcNAc(b1-4)GlcNAc
# In short: as §1
# [19] = target: Neu5Ac(a2-6)Gal(b1-4)GlcNAc(b1-2)Man(a1-6)[Gal(b1-4)GlcNAc(b1-2)Man(a1-3)]Man(b1-4)GlcNAc(b1-4)GlcNAc
# In short: as §1
# [20] = target: Neu5Ac(a2-6)Gal(b1-4)GlcNAc(b1-2)Man(a1-6)[GlcNAc(b1-2)Man(a1-3)]Man(b1-4)GlcNAc(b1-4)GlcNAc
# In short: as §1
# [21] = target: Neu5Ac(a2-6)Gal(b1-4)GlcNAc(b1-2)Man(a1-6)[Man(a1-3)]Man(b1-4)GlcNAc(b1-4)GlcNAc
# In short: as §1
# [22] = target: Neu5Ac(a2-6)Gal(b1-4)GlcNAc(b1-2)[Neu5Ac(a2-6)Gal(b1-4)GlcNAc(b1-4)]Man(a1-3)[GlcNAc(b1-4)][Neu5Ac(a2-6)Gal(b1-4)GlcNAc(b1-2)[Neu5Ac(a2-6)Gal(b1-4)GlcNAc(b1-6)]Man(a1-6)]Man(b1-4)GlcNAc(b1-4)GlcNAc
# In short: as §1
# [23] = target: Neu5Ac(a2-6)Gal(b1-4)GlcNAc(b1-2)[Neu5Ac(a2-6)Gal(b1-4)GlcNAc(b1-4)]Man(a1-3)[GlcNAc(b1-4)][Neu5Ac(a2-6)Gal(b1-4)GlcNAc(b1-4)Man(a1-6)]Man(b1-4)GlcNAc(b1-4)GlcNAc
# In short: as §1
# [24] = target: Neu5Ac(a2-6)Gal(b1-4)GlcNAc(b1-2)[Neu5Ac(a2-6)Gal(b1-4)GlcNAc(b1-6)]Man(a1-6)[Neu5Ac(a2-6)Gal(b1-4)GlcNAc(b1-2)Man(a1-3)][GlcNAc(b1-4)]Man(b1-4)GlcNAc(b1-4)GlcNAc
# In short: as §1
# [25] = target: Neu5Ac(a2-6)Gal(b1-4)GlcNAc(b1-3)Gal(b1-3)GlcNAc
# In short: as §1
# [26] = target: Neu5Ac(a2-6)Gal(b1-4)GlcNAc(b1-3)Gal(b1-4)GlcNAc
# In short: as §1
# [27] = target: Neu5Ac(a2-6)Gal(b1-4)GlcNAc(b1-3)Gal(b1-4)GlcNAc(b1-2)Man(a1-3)[Neu5Ac(a2-6)Gal(b1-4)GlcNAc(b1-3)Gal(b1-4)GlcNAc(b1-2)Man(a1-6)]GalNAc
# In short: as §1
# [28] = target: Neu5Ac(a2-6)Gal(b1-4)GlcNAc(b1-3)Gal(b1-4)GlcNAc(b1-3)Gal(b1-4)GlcNAc
# In short: as §1
# [29] = target: Neu5Ac(a2-6)Gal(b1-4)GlcNAc(b1-3)Gal(b1-4)GlcNAc(b1-3)Gal(b1-4)GlcNAc(b1-2)Man(a1-3)[Neu5Ac(a2-6)Gal(b1-4)GlcNAc(b1-3)Gal(b1-4)GlcNAc(b1-3)Gal(b1-4)GlcNAc(b1-2)Man(a1-6)]GalNAc
# In short: as §1
# [30] = target: Neu5Ac(a2-6)Gal(b1-4)GlcNAc(b1-3)Gal(b1-4)GlcNAc(b1-3)GalNAc
# In short: as §1
# [31] = target: Neu5Ac(a2-6)Gal(b1-4)GlcNAc(b1-3)Gal(b1-4)GlcNAc(b1-3)[Neu5Ac(a2-6)Gal(b1-4)GlcNAc(b1-3)Gal(b1-4)GlcNAc(b1-6)]GalNAc
# In short: as §1
# [32] = target: Neu5Ac(a2-6)Gal(b1-4)GlcNAc(b1-3)Gal(b1-4)GlcNAc(b1-6)[Gal(b1-3)]GalNAc
# In short: as §1
# [33] = target: Neu5Ac(a2-6)Gal(b1-4)GlcNAc(b1-3)Gal(b1-4)[Fuc(a1-3)]GlcNAc(b1-3)Gal(b1-4)[Fuc(a1-3)]GlcNAc
# In short: as §1
# [34] = target: Neu5Ac(a2-6)Gal(b1-4)GlcNAc(b1-3)GalNAc
# In short: as §1
# [35] = target: Neu5Ac(a2-6)Gal(b1-4)GlcNAc(b1-3)[Neu5Ac(a2-6)Gal(b1-4)GlcNAc(b1-6)]GalNAc
# In short: as §1
# [36] = target: Neu5Ac(a2-6)Gal(b1-4)GlcNAc(b1-6)GalNAc
# In short: as §1
# [37] = target: Neu5Ac(a2-6)Gal(b1-4)GlcNAc(b1-6)[Gal(b1-3)GlcNAc(b1-3)]Gal(b1-4)Glc
# In short: as §1
# [38] = target: Neu5Ac(a2-6)Gal(b1-4)GlcNAc(b1-6)[Gal(b1-3)]GalNAc
# In short: as §1
# [39] = target: Neu5Ac(a2-6)Gal(b1-4)GlcNAc6S
# In short: as §1
# Neu5Ac(a2-6)GalNAc = target: Neu5Ac(a2-6)GalNAc
# In short: as §1
# [40] = target: Neu5Ac(a2-6)GalNAc(b1-4)GlcNAc
# In short: as §1
# [41] = target: Neu5Ac(a2-6)GalNAc(b1-4)GlcNAc6S
# In short: as §1
binder,measurement,setting,value
B1,glycan array binding signal (z-score),[1],-0.298
same,glycan array binding signal (z-score),Neu5Ac(a2-3)GalNAc,-0.242
same,glycan array binding signal (z-score),[2],-0.32
same,glycan array binding signal (z-score),[3],-0.304
same,glycan array binding signal (z-score),[4],-0.369
same,glycan array binding signal (z-score),[5],-0.22
same,glycan array binding signal (z-score),[6],-0.404
same,glycan array binding signal (z-score),Neu5Ac(a2-6)Gal,-0.172
same,glycan array binding signal (z-score),[7],-0.167
same,glycan array binding signal (z-score),Neu5Ac(a2-6)Gal(b1-4)Glc,-0.209
same,glycan array binding signal (z-score),[8],-0.206
same,glycan array binding signal (z-score),[9],-0.171
same,glycan array binding signal (z-score),[10],-0.221
same,glycan array binding signal (z-score),[11],-0.315
same,glycan array binding signal (z-score),[12],-0.232
same,glycan array binding signal (z-score),[13],-0.196
same,glycan array binding signal (z-score),[14],-0.279
same,glycan array binding signal (z-score),[15],-0.317
same,glycan array binding signal (z-score),[16],-0.242
same,glycan array binding signal (z-score),[17],-0.147
same,glycan array binding signal (z-score),[18],-0.314
same,glycan array binding signal (z-score),[19],-0.256
same,glycan array binding signal (z-score),[20],-0.343
same,glycan array binding signal (z-score),[21],-0.235
same,glycan array binding signal (z-score),[22],-0.269
same,glycan array binding signal (z-score),[23],-0.057
same,glycan array binding signal (z-score),[24],-0.233
same,glycan array binding signal (z-score),[25],-0.263
same,glycan array binding signal (z-score),[26],-0.335
same,glycan array binding signal (z-score),[27],-0.05
same,glycan array binding signal (z-score),[28],-0.241
same,glycan array binding signal (z-score),[29],0.827
same,glycan array binding signal (z-score),[30],-0.241
same,glycan array binding signal (z-score),[31],-0.307
same,glycan array binding signal (z-score),[32],-0.227
same,glycan array binding signal (z-score),[33],-0.208
same,glycan array binding signal (z-score),[34],10.1
same,glycan array binding signal (z-score),[35],-0.141
same,glycan array binding signal (z-score),[36],-0.029
same,glycan array binding signal (z-score),[37],-0.336
same,glycan array binding signal (z-score),[38],-0.315
same,glycan array binding signal (z-score),[39],-0.302
same,glycan array binding signal (z-score),Neu5Ac(a2-6)GalNAc,-0.234
same,glycan array binding signal (z-score),[40],-0.418
same,glycan array binding signal (z-score),[41],-0.026

# From the supplement of paper PMC8728848
